According to paper PMC4336329 (PLoS ONE, 2015):
In all, about 310,000 compounds went through this assay and about 14,000 (4.5%) showed an effect of 50% or more. Effects have a minus sign here. The list shows a part of the results. Where a SMILES comes first, the peptide text is derived from it. The star is where a group is joined. Boc = CC(C)(C)OC(=O)*
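Also: peak tail current of the secondary pulse compared with the same well before compound.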

Each molecule was assayed against human ether-à-go-go-related gene (hERG) potassium channel (human, UniProt Q12809) (assay: primary screen, population patch clamp on CHO cells stably expressing hERG).
human ether-à-go-go-related gene (hERG) potassium channel, sequence (Q12809 whole entry, looked up): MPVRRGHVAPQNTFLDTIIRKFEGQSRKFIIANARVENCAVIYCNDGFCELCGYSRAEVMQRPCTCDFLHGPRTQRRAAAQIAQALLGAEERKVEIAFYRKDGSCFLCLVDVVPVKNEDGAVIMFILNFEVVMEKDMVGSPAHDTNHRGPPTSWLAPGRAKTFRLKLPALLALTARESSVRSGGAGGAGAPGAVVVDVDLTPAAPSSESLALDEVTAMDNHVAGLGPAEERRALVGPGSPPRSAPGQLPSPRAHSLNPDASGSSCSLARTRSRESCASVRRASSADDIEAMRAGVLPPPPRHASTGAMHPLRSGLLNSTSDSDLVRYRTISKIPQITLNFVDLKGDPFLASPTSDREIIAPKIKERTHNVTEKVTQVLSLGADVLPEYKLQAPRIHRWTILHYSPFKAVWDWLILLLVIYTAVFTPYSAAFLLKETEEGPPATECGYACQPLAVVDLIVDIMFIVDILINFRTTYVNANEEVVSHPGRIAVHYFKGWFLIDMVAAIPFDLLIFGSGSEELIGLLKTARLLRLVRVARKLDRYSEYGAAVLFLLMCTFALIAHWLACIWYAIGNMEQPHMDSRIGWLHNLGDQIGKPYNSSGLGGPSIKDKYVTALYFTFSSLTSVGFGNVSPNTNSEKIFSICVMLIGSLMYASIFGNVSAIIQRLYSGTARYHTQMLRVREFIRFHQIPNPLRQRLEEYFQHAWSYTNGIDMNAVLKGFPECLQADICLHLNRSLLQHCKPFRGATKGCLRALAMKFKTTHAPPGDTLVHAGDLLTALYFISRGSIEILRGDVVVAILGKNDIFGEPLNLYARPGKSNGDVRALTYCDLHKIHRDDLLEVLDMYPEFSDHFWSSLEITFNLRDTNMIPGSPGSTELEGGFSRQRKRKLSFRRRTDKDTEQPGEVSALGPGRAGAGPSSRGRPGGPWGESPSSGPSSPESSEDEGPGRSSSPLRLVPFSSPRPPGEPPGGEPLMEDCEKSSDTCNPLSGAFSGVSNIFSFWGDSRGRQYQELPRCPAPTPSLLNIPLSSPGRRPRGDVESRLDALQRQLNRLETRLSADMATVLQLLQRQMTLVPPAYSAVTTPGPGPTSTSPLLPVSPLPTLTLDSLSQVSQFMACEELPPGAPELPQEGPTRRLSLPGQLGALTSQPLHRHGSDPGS
For `CCNC(=S)N1CC(C)OC(C)C1` (centres unmarked), the “hERG current change (%, negative = inhibition) at 10uM” value was 8.95%. For `Cc1ccc(-c2csc(NC(=O)C3CCN(S(=O)(=O)c4cccs4)CC3)n2)cc1`, the “hERG current change (%, negative = inhibition) at 10uM” value was 13.4%. In the case of `COc1ccc2cc1Oc1ccc(cc1)C[C@H]1c3cc(c(OC)cc3CCN1C)Oc1c(O)c(OC)cc3c1[C@H](C2)N(C)CC3`, the “hERG current change (%, negative = inhibition) at 10uM” value is reported as -47.7%. `Cc1cccc(C)c1NC(=O)NN(C(=O)c1ccccc1)C(C)(C)C` was tested, and the “hERG current change (%, negative = inhibition) at 10uM” value was -9.36%. In the case of `CO/N=C/C=C1/N(C)c2ccccc2C1(C)C`, the “hERG current change (%, negative = inhibition) at 10uM” value is reported as 19.8%. For `CC(C)C(=O)Nc1nnc(COc2ccc(Cl)cc2)s1`, the “hERG current change (%, negative = inhibition) at 10uM” value was 8.84%. `CC(C)=CCc1c(O)cc(O)c2c1OC(c1ccc(O)cc1)CC2=O` (centres unmarked) was tested, and the “hERG current change (%, negative = inhibition) at 10uM” value was 5.67%. In the case of `NC(=O)CCc1c[nH]c2ccccc12`, the “hERG current change (%, negative = inhibition) at 10uM” value is reported as 11.4%. `O=C(Nc1ccc(S(=O)(=O)Nc2ncccn2)cc1)c1cnc(Cl)c(Cl)c1` was tested, and the “hERG current change (%, negative = inhibition) at 10uM” value was 19.2%. With `NC(=O)NC(CC(=O)NNC(=O)c1ccccn1)c1ccccc1Cl` (centres unmarked) the “hERG current change (%, negative = inhibition) at 10uM” value was 3.73%. `O=C(CCSCc1ccccc1Cl)NCc1ccco1` was tested, and the “hERG current change (%, negative = inhibition) at 10uM” value was 15.8%. `O=C(CCNC(=O)Cn1ccc2ccccc2c1=O)NCCC1=CCCCC1` was tested, and the “hERG current change (%, negative = inhibition) at 10uM” value was -12.4%. With `CN(C)c1ccc(C(CNC(=O)c2ccccc2Br)c2c[nH]c3ccccc23)cc1` (centres unmarked) the “hERG current change (%, negative = inhibition) at 10uM” value was -4.71%. For `CCc1ccc2nc(N(CCCN(C)C)C(=O)c3ccc(S(=O)(=O)N(C)C4CCCCC4)cc3)sc2c1.Cl`, the “hERG current change (%, negative = inhibition) at 10uM” value was 8.35%. In the case of `NCCCC[C@@H]1NC(=O)c2cc([N+](=O)[O-])cc(F)c2NCCCC[C@@H](C(N)=O)NC(=O)[C@H](CCC(N)=O)NC1=O`, the “hERG current change (%, negative = inhibition) at 10uM” value is reported as -1.25%. `CN1CCN(S(=O)(=O)c2ccc(N3CCc4ccccc4C3)nc2)CC1` was tested, and the “hERG current change (%, negative = inhibition) at 10uM” value was 13.8%. `COCCCNc1nc2c(-c3cccc(C(F)(F)F)c3)nnn2c2ccccc12` was tested, and the “hERG current change (%, negative = inhibition) at 10uM” value was -1.31%. In the case of `O=c1/c(=C/c2ccc(O)cc2)sc2nc3cc(Br)cnc3n12`, the “hERG current change (%, negative = inhibition) at 10uM” value is reported as 13.7%. For `CCN1C(=O)[C@H]2[C@@H](c3ccccc3)N3C(=O)N(c4cccc(F)c4)C(=O)[C@@]3(CC(C)C)[C@H]2C1=O`, the “hERG current change (%, negative = inhibition) at 10uM” value was 13.5%. For `Cc1ccc(Nc2nc3c(c(=O)[nH]2)CCCC3)cc1`, the “hERG current change (%, negative = inhibition) at 10uM” value was -2.8%. For `O=C1ON=C(c2ccccc2)/C1=C/c1ccccc1`, the “hERG current change (%, negative = inhibition) at 10uM” value was 11.4%. In the case of `O=C(COC(=O)c1ccc(N2CCCC2=O)cc1)NCc1ccco1`, the “hERG current change (%, negative = inhibition) at 10uM” value is reported as 13.6%. In the case of `CC(=O)Nc1ccc(S(=O)(=O)n2cnc3cc(C)c(C)cc32)cc1`, the “hERG current change (%, negative = inhibition) at 10uM” value is reported as 1.16%. With `Cc1nn(Cc2ccc([N+](=O)[O-])cc2)c(=O)n1N(C)c1ncc(C(F)(F)F)cc1Cl` the “hERG current change (%, negative = inhibition) at 10uM” value was -3.46%. With `CCOC(=O)NC1c2ccccc2Oc2ccccc21` the “hERG current change (%, negative = inhibition) at 10uM” value was -8.04%. In the case of `Nc1nonc1-n1nnc(C(=O)N/N=C/c2ccccc2Br)c1CN1CCCC1`, the “hERG current change (%, negative = inhibition) at 10uM” value is reported as 15.3%. With `CCCNC(=S)N1CCC(NC(=O)c2ccc(OC)cc2)CC1` the “hERG current change (%, negative = inhibition) at 10uM” value was -5.18%. With `Cc1ccc(N2C(=O)NC(=O)/C(=C\c3cc(C)n(-c4ccc(C(=O)O)cc4)c3C)C2=O)cc1` the “hERG current change (%, negative = inhibition) at 10uM” value was 24.6%. `COc1ccc(C(CNC(=O)c2cccc(NC(=O)c3cccs3)c2)N2CCCC2)cc1` (centres unmarked) was tested, and the “hERG current change (%, negative = inhibition) at 10uM” value was -58.8%. In the case of `CCCCNC(=O)CCNS(=O)(=O)c1ccc(C)cc1`, the “hERG current change (%, negative = inhibition) at 10uM” value is reported as -2.03%. With `CCOC(=O)c1c(C)[nH]c(C)c1C(=O)COC(=O)c1cc2ccccc2cc1O` the “hERG current change (%, negative = inhibition) at 10uM” value was 11%. For `CCC(C)C(NC(=O)OC(C)(C)C)C(=O)NC(C(=O)N1CCCC1C(N)=O)C(C)CC` (stereo not drawn) (Boc-Ile-Ile-Pro-NH2; configuration not given here), the “hERG current change (%, negative = inhibition) at 10uM” value was 9.19%. For `CCOC(=O)Cn1c(=O)oc2cc(S(=O)(=O)Nc3cccc(C)c3)ccc21`, the “hERG current change (%, negative = inhibition) at 10uM” value was -22.5%. With `COc1cccc(N(CC(=O)NC2CCCC2)C(=O)Cn2nnc(-c3ccc(C)o3)n2)c1` the “hERG current change (%, negative = inhibition) at 10uM” value was -0.0528%. For `CC(C)(C)c1ccc(OCC(=O)N(Cc2cccs2)C2CCS(=O)(=O)C2)cc1` (centres unmarked), the “hERG current change (%, negative = inhibition) at 10uM” value was -54.2%. In the case of `Cc1ccc(C(=O)NCCn2cc(SCC(=O)Nc3nnc(C)s3)c3ccccc32)cc1`, the “hERG current change (%, negative = inhibition) at 10uM” value is reported as -3.05%. With `CCc1c(C)nc(N)n2c(SCC(=O)N3CCCc4ccccc43)nnc12` the “hERG current change (%, negative = inhibition) at 10uM” value was -5.8%. In the case of `CCOc1ccc(CNc2nc3ccccc3n2C)cc1`, the “hERG current change (%, negative = inhibition) at 10uM” value is reported as -31.4%. `COC(=O)c1cccnc1Oc1ccccc1` was tested, and the “hERG current change (%, negative = inhibition) at 10uM” value was 4.12%. With `CCC(=O)N(C(=O)CC)N1CCN(c2ccncc2S(=O)(=O)N2CCCCC2)CC1` the “hERG current change (%, negative = inhibition) at 10uM” value was -52.5%. `CCN1/C(=C\C=C\C2=[N+](CC)c3ccccc3C2(C)C)C(C)(C)c2ccccc21.[O-][Cl+3]([O-])([O-])[O-]` was tested, and the “hERG current change (%, negative = inhibition) at 10uM” value was -96.7%. `CS(=O)(=O)N(CC(=O)Nc1c(F)cccc1F)Cc1ccccc1` was tested, and the “hERG current change (%, negative = inhibition) at 10uM” value was 10.3%. In the case of `CCOCCCn1c(=O)c(NC(=O)c2ccc(OCC)cc2)c2n(c1=S)CCCCC2`, the “hERG current change (%, negative = inhibition) at 10uM” value is reported as -27.8%. With `CC(=O)Nc1cccc(NC(=O)CSc2nc3c(c(=O)n(C)c(=O)n3C)n2C)c1` the “hERG current change (%, negative = inhibition) at 10uM” value was -41.9%. `CCOc1cc(S(=O)(=O)N2CCCCC2)ccc1Cl` was tested, and the “hERG current change (%, negative = inhibition) at 10uM” value was -21.3%. With `COc1ccc(S(=O)(=O)N(C)c2ccc(C(=O)N3CCCC3)cc2)cc1OC` the “hERG current change (%, negative = inhibition) at 10uM” value was 12.8%. With `Cc1cc(C(=O)N/N=C/c2cccc([N+](=O)[O-])c2)c(C)o1` the “hERG current change (%, negative = inhibition) at 10uM” value was 9.13%. With `O=C(COC(=O)/C=C/c1cccc(Cl)c1)NCCC1=CCCCC1` the “hERG current change (%, negative = inhibition) at 10uM” value was -11.9%. `CCOC(=O)CCCCNCc1ccccc1.Cl` was tested, and the “hERG current change (%, negative = inhibition) at 10uM” value was -5.76%. `CC1(C)CC(=O)c2c(Cc3ccccc3)noc2C1` was tested, and the “hERG current change (%, negative = inhibition) at 10uM” value was 12.1%. `CCOC(=O)C1=C(C)C(c2cccc(Oc3ccccc3)c2)NC(=S)N1` (centres unmarked) was tested, and the “hERG current change (%, negative = inhibition) at 10uM” value was 0.199%. With `CCOC(=O)c1cc2sccc2n1CC(=O)N1c2ccccc2CC1C` (centres unmarked) the “hERG current change (%, negative = inhibition) at 10uM” value was -0.785%. For `Nc1nonc1-c1nc2ccccc2n1Cc1ccc(Cl)cc1`, the “hERG current change (%, negative = inhibition) at 10uM” value was 0.205%.
